Measured values: the supplement of paper PMC12632987
Whole data set: some 4,500 sequences, median “median log2 fold change of GCK-ALFA target abundance (FLAG IP / Myc IP barcode read proportion)” near 0.078, cut for the lowest 2% near -0.6. This is one part of the list.

B1: GBRAP_160_4556 (protein)
chain: MEAAKEELEEIRELLEEAIELAKDLNPEEILILARGTLGEVIMLAFSSPHFTEEMEEALIEAADEIEERLEAAVDKNREEVVAVFREGAEALIKRLEELL
B2: GBRAP_128_3372 (protein)
chain: VDEEALARVRELGERMAEADVETAERLAEEIVRHLGTLDRETAEAAVEILKELLPKLSAEKLDVLADVIRRLRPTLDPYIASLLNELEVEALNEAEEKEE
B3: GBRAP_48_5822 (protein)
chain: MHMDEEELEELVEETVEEMKEIYEEAKKAGLSREEILKMIKAELGDLALELEEAGYTKAADYLLDPKNRDELATKLLEFFEEGKYEEAKEYLLEELRKAE
B4: GBRAP_78_6682 (protein)
chain: KVEEELDKAIEHLGKAAKILNKMGTEEALDLLGEVIDAAATVWEAHEGEADLKELEEALKKLKEALKRAKKIPTEEAKEAAKHLEEAIKHLEEAIKLLKK
B5: GBRAP_14_3772 (protein)
chain: MEEKEKILREEAAEIVELLAELAPEKAAAFRAAVDEVTEETIEEIRRTGNAFEAVEKGEERLVARIREITADLPPELQAEALAVVRVGYGEALLEIDELE
B6: GBRAP_39_5705 (protein)
chain: EREEEAEELFSYYEAEGAKYAVEEGLDEEEVRERTRELAERLSERYPELAPLVREALELAEKKGILAVLALLGLLLAAERGRPPEELREDLELLIEYLKS
B7: GBRAP_9_7129 (protein)
chain: REELIERLAEIVKDMIEDIAKVVPELTEEMKEKFLERVEALKKELLEDKNATPEEIAERFKELVEEIREEVKKIVNEEEKKLVDAIALTALVEIDEVVEE
B8: GBRAP_160_4852 (protein)
chain: EEKLKKALELIEEAEEEILELVDEVDVETLAAFFRAEVGRVIYEMETELNASDELLDKLDEIADETVEELLANPDLSVEERKELIREAFEKMKEAVKELS
B9: GBRAP_83_6920 (protein)
chain: KEEITVAANDDHIEEAAEAAIDLHKEEGYEVSLEFLITRESIPKLLKAFEKIAKAGVELELEILAYGVTEEEAEELKKELEEIAKKYGVKAKVEVEAIEP
B10: GBRAP_137_3629 (protein)
chain: ATVTIEVRHYEDVTEITVTLEDAALAEAVEELVLDVAHEHGALAVSVERDEDGTLTVEVWVPRERAQALLDALVRRLQEELGLRVRVRDLDTGEVREFTP
B11: GBRAP_11_2892 (protein)
chain: KEEKLKEAAELAKKLVELLKKLLEEGVDNEELLEEALKQAEKLLKLAKEYLDEATKKDVEIVLELVKKAKEDPENREQYAEEALAAARVLEGNLLLELEE
B12: GBRAP_128_3255 (protein)
chain: MNPEVVKYATEKVEKIKNSDAAEAAKIADDFMKWLKESSLEDAEQAVEVVEKRLGELSAEKLDILADAARKHLPEFSPEKANLVAGLEVEALNEAEEKEE
B13: GBRAP_160_4404 (protein)
chain: KEEFEKLKKEVKEIIEETKKLIEGETPEQRKVIIRVMIGDIILAAEENPAVTDEQEEEIDEILDEKLEKILAAVDEGLEAVKEELDELEEELEELIEEYE
B14: GBRAP_52_5858 (protein)
chain: MEEEMREIAEELLELKLAGKEEELKKRVKELVKTLSEEEILELLKELAELAKKANKEEAEAIAEVAELLADEAEKAGFDEDELSYYLAEVYAAAYKQLQK
B15: GBRAP_52_6143 (protein)
chain: SAARVEALARAIVDALVAGREEEARALLREAIRTLSLEELLALAAEAARLIAKQGPDAEELLARFLELWEEVGEEEGLDDETIDLLIATAAKTFVDEQAK
B16: GBRAP_11_2889 (protein)
chain: KKEALEKALELAKELVELLEKLLKEGVDNEELLKKAKEKAEELLKLAKEHLDPALQKDVEIIVELIEKAIEDPENREQYVKEALAAARVLAGNLELELEE
B17: GBRAP_160_4571 (protein)
chain: SAAIEALIKEIREEVEEAVEMIEGQDFAERRAIVRVTAGNILLLLDENPEVSEATLEEADAIFDALLATIDANPDLTAAEIQALLREAAERVIALLEKES
B18: GBRAP_125_2991 (protein)
chain: SEEEVLAALAEVLRALGFDDEDVEEAVRLARRHGIRGTLYAMMAALGWDEAADAVAQLTEEQARAVVLEVAAALRANPGLSPEEVAALILATARAALAAA
B19: GBRAP_14_3809 (protein)
chain: KEELKKEIEEILEELRRELVELLGLDEERVTALVDEAIEKIKEAIETLEDPEEEIEKIFDELRAKVAELAAALGADVEAGARALVDDAEYEVDEAIEKYK
B20: GBRAP_153_3949 (protein)
chain: MEEEEKLKKEALELIEQIKKSNGDPELIKKFAELFTKLNEENKKEIFKELESLPEELQKKIVKTLIKEAGISPEEIIEWIVGTSEEFEAAVLEAIVEAQK
B21: GBRAP_80_6826 (protein)
chain: MEEELEKNIEEIEKLDKEIAEIVKEIVELAKELGVPLEVLLRYTKAILELLKKDKEKALELAKKTLEEVKKAKEKGNKDEVIAILAEAESDALLEVEELE
B22: GBRAP_160_4244 (protein)
chain: SERLEKIRRDIREEAEVALEALAEVPPSQWPAILRAMAGDIVQIVIEDPSMSDETVERVDELAEEMVARLEAARDASPEEIRALLDEGVERIIELIEEEL
B23: GBRAP_128_3440 (protein)
chain: MQEELLKEALELLDKIVESDVEEAAELAKKLAELLGKLDEESRDKVVEYFEEKAKELTEEKLEAVSDALREQVPSLDPLTANAVNEMMVILGERILELEE
B24: GBRAP_83_6896 (protein)
chain: AEEITVAADGDHIEEAFEAAIDLSKEYGYKVSIEVIVTPEDVETLLKAFEKLAKEGINVELEVIAEGMTEEEIEELKKKLEEIAKKYGVDVKIEVIKKEP
B25: GBRAP_78_6722 (protein)
chain: EVEELIDKALEKLDEAAKLSLQLDEDTQAELLDLLSDAMTLLVEAEENGFDLKLLEEALKLVEEAIKLAKKLDSETAKKILKLLEEAKKYLEKAIKLLKE
B26: GBRAP_35_5570 (protein)
chain: EFDEETTEMLIATIEDLTLAVPDMPLDQAVAAAKALAETAEELVKELKDNPELLKRIAEALKKLLEAVEKHYGDSPEAKEAAARIKKVIEEALKLAKEAE
B27: GBRAP_125_3099 (protein)
chain: EEEELLENLKEIALALGFSEEDAEELARLAREGSLKQTLVALFLAEGAEEVAELVAKLTEEQAKQLVKELAKWLKENPNASKEEVIEKAKEIAEKLLAES
B28: GBRAP_160_3986 (protein)
chain: SETLEKLKEFIDEETEETIELIKGESHEERVIIIEGGFGEIIMELMSEESVSDEAEDEIAEIGDETVNTIKENPDLTYEEIVELIEEAREKMKEILEKAF
B29: GBRAP_160_4298 (protein)
chain: SPELDALKASIKEITEEAIKMIEGESRENQVAIAKVALGEILLEAFENPLVSDETEDQIGAITDAAEATLDANPDLSLEEIKALLKAATDQILALIDTLS

Each binder was assayed against GABARAP, O95166 (assay: median log2 fold change of GCK-ALFA target abundance (FLAG IP / Myc IP barcode read proportion) (log2 ratio); each designed protein is fused to an ALFA-tag nanobody in HEK293 cells to bring the named protein to FLAG-tagged glucokinase (GCK); Myc marks an untargeted standard; higher = target protein stabilised (more abundant)). Details: target protein: 3xFLAG-MCP-GCK-ALFA reporter; HEK293 landing pad (RPLP).
Method in brief: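 The readout is target abundance, the per-binder median log2 ratio of FLAG to Myc barcode read proportions. It came from HEK293 landing-pad cells carrying a recombined ALFA-nanobody-fused binder library, induced with 2 μg mL^−1 doxycycline and transfected with a plasmid for a FLAG-tagged target and a Myc-tagged standard. After 48 h, lysates were immunoprecipitated with anti-FLAG and anti-Myc, and circular RNA barcodes were reverse transcribed, amplified and sequenced. Each barcode needed a proportion of at least 10^−7 in both replicates and each binder at least 3 barcodes per replicate, a pseudocount of 10^−6 was added, and the replicates were pooled.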

GABARAP, O95166, sequence (O95166 whole entry, the tested form may be a part): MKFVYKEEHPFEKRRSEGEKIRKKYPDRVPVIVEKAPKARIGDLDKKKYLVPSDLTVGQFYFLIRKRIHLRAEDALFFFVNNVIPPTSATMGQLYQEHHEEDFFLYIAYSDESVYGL

Row | Binder | median log2 fold change
1 | B1 | -0.36
2 | B2 | 0.184
3 | B3 | 0.0591
4 | B4 | -0.179
5 | B5 | 0.004
6 | B6 | 0.042
7 | B7 | 0.168
8 | B8 | -0.441
9 | B9 | 0.00635
10 | B10 | -0.0573
11 | B11 | -0.148
12 | B12 | 0.0207
13 | B13 | -0.346
14 | B14 | -0.144
15 | B15 | -0.35
16 | B16 | 0.0469
17 | B17 | 0.096
18 | B18 | -0.179
19 | B19 | 0.0997
20 | B20 | -0.0177
21 | B21 | 0.133
22 | B22 | -0.0641
23 | B23 | 0.147
24 | B24 | 0.047
25 | B25 | 0.148
26 | B26 | 0.228
27 | B27 | -0.11
28 | B28 | -0.0963
29 | B29 | -0.376
